Our source for the z-score values is PubChem BioAssay AID488969 (Vanderbilt High Throughput Screening Facility, 2010).

The full ranking holds about 110,000 compounds; the median of “z-score” is about -0.1, and the highest 2% start at about 2. Some of the results follow. Calls of active or inactive are those of the source.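 How the source made its calls: active means z-score in the third read window above 3 or below -3; inactive means the rest.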

For this assay, the target named is Metabotropic glutamate receptor 8 (Rattus norvegicus) (UniProt P70579). The experiment in a line: mGluR8 Gi/Go-coupled signaling modulation – cell-based, rat, thallium flux, HTS, primary screen (AID 488969). As to conditions: HEK293 rat mGluR8, GIRK (G protein-gated inwardly rectifying potassium channel) thallium flux, FluoZin2; at 10 µM; stronger effect = higher value; submaximal glutamate (EC20) added with thallium.
Sequence of UniProt P70579 (P70579 whole entry, looked up): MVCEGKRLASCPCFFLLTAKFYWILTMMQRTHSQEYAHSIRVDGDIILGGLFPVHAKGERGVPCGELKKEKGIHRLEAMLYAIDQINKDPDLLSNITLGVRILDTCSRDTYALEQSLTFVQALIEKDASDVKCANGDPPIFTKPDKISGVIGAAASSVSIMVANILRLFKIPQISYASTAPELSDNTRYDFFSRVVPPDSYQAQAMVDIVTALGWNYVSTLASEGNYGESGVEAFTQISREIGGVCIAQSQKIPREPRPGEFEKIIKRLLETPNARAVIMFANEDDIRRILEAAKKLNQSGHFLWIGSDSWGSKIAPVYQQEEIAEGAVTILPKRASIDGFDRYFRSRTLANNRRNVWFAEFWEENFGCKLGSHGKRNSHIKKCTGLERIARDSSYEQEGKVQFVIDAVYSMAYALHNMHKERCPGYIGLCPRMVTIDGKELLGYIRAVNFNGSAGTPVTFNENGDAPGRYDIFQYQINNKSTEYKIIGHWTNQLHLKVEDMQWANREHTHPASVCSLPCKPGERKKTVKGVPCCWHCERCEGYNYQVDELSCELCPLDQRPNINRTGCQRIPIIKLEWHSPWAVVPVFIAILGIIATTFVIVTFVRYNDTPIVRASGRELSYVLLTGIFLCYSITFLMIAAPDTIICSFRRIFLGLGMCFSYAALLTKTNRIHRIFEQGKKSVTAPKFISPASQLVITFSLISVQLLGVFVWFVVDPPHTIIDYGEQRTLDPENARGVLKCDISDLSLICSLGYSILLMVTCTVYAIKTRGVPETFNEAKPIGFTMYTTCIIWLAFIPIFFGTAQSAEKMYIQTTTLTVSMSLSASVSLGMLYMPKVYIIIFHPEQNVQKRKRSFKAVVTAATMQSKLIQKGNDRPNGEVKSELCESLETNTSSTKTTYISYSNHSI
Molecule `COc1ccc(-c2nc(C#N)c(N3CCC(C(N)=O)CC3)o2)cc1` displayed a z-score of -0.0894.
In turn, `O=C(C1CCN(S(=O)(=O)c2ccc(F)cc2)CC1)N1CCOCC1` showed a z-score of 0.0477.
The same measure for `Cn1c(COc2ccccc2)nnc1SCc1nc2ccccc2[nH]1`: -0.0593; for `CCOC(=O)/C=C1\NC2(CCCCC2)Cc2cc(OC)c(OC)cc21`: 0.523.
The same measure for `CC1CN(S(=O)(=O)c2cn(C)c(=O)n(C)c2=O)CC(C)O1` (stereo not drawn): 0.143; for `CCSc1nc(N)c2c(C)c(C)sc2n1`: -0.0599.
Consider `O=C(NCc1ccccn1)c1cccs1`, for which the z-score came out at 0.202.
As to `O=C(c1cc2nc(-c3ccco3)cc(C(F)(F)F)n2n1)N1CCCCCC1`, the z-score is -0.907.
The value for `COc1ccc(C(=O)N2CCOCC2)cc1Br` was 0.2; that for `CNS(=O)(=O)c1ccc2c(c1)NC(=O)C1CCCN21` (stereo not drawn) was 1.46; that for `O=C(O)C1C2C=CC3(O2)C1C(=O)N1c2ccccc2COC13` (stereo not drawn) was 0.248.
For the molecule `O=Cc1c(N2CCN(c3cccc(Cl)c3)CC2)nc2ccccn2c1=O`, the z-score is 1.04.
Molecule `C=CCN1C(=O)NC(c2ccc(OC)cc2)(C(F)(F)F)S/C1=C(\C#N)c1nnc(N2CCOCC2)n1-c1ccccc1` (stereo not drawn) showed a z-score of -0.46.
On to `Nc1nc(SCc2nnc(SCC(=O)O)n2-c2ccccc2)nc2sc3c(c12)CCCC3`, for which the z-score was 0.0376.
As to `Cc1ccc2nc(-c3ccc(NC(=O)CN4C(=O)c5ccccc5C4=O)cc3)sc2c1`, the z-score is -0.329.
On to `COC(=O)c1cc(OC)c(OC)cc1NC(=S)Nc1cc(Cl)ccc1OC`, for which the z-score was -0.0863.
As to `CCOc1cc(C(=O)NC)cc(OCC)c1OCC`, the z-score is 0.62.
As to `O=C(NCc1cccs1)c1cc2c(s1)CCCC2`, the z-score is -0.28.
For `COc1ccccc1CNC(=O)C1CCN(S(=O)(=O)N2CCCCC2)CC1`, the z-score was -0.225.
`CSc1ccccc1NC(=O)CN(c1ccccc1)S(=O)(=O)N(C)C`: the z-score was -0.33.
`COc1ccc(-c2nc(CCNC(=O)c3ccco3)cs2)cc1OC` gave a z-score of -0.532.
With `Nc1c(NCc2ccccc2)c(=O)[nH]c(=O)n1Cc1ccccc1`, the z-score is -0.136.
Take `COc1ccc(CC(=O)NCc2nnc(SCC(=O)Nc3nccs3)n2-c2ccccc2)cc1`: the z-score was 0.15.
As to `COc1ccc(NC(=O)C2CCN(S(=O)(=O)c3cccc4cccnc34)CC2)cc1`, the z-score was determined as 0.656.
`CCOC(=O)C(NC(=O)Nc1ccc(Cl)cn1)(Oc1ccc(F)cc1)C(F)(F)F` (stereo not drawn) returned a z-score of 0.888.
In turn, `Cc1cccc(-c2nnn(CC/C(N)=N/O)n2)c1` showed a z-score of 0.0988.
With `CC(C)NC(=O)c1onc(CSc2ccccc2)c1C(=O)O`, the z-score is -0.183.
The same measure for `CS(=O)(=O)c1ccc2nc(NC(=O)Nc3ccc(Cl)cc3)sc2c1`: 0.161; for `CCOc1ccc2c(O)csc2c1`: 0.211.
In turn, `Cc1c2c(nc3c(C(=O)NC4CCCCC4C)cnn13)CCCC2` (stereo not drawn) came in with a z-score of -1.98.
The same measure for `O=C(CN1CCN(c2ccccc2)CC1)Nc1ccccc1C(F)(F)F`: -0.0406; for `COc1ccc(C(=O)/C=C/Nc2ccc(S(=O)(=O)Nc3cccc(C(C)=O)c3)cc2)cc1`: -0.777; for `S=C(NCCCc1ccccc1)Nc1ccccc1Cl`: 0.383.
Molecule `CCCC(=O)Nc1ccc(Oc2ccc(NC(=O)CCC)cc2)cc1` showed a z-score of 0.157.
For the molecule `O=C(c1cccs1)n1cc(C(=S)N2CCOCC2)c2ccccc21`, the z-score was -1.57.
The value for `COc1cccc(NC(=O)CC2SC(=Nc3ccccc3)NC2=O)c1` (stereo not drawn) was -0.402; that for `CC(=O)Nc1cccc(NC(=O)CSc2nnnn2C)c1` was -0.0629; that for `CN(C)/C(CN1CCN(C=O)CC1)=C1\N=C(c2ccccc2)OC1=O` was 0.0463.
The molecule `COc1ccc(OC)c2c1nc1n2CCS1` yielded a z-score of -0.152.
The value for `O=[N+]([O-])c1ccc(Sc2nccn2Cc2ccccc2)cc1` was 0.0581; that for `CC1CCC(NC(=O)c2ccc(CS(=O)(=O)Cc3ccccc3F)o2)CC1` (stereo not drawn) was -0.656; that for `CN(C)c1ccc(/C=N/NC(=S)NCc2ccccc2)cc1` was -0.185.
In the case of `Cc1cc(C)c2c(C)nn(C3CCCCC3)c2n1`, the z-score was -0.408.
The same measure for `COC(=O)C(NC(=O)c1ccccc1Cl)(Nc1ncc(S(=O)(=O)c2ccc([N+](=O)[O-])cc2)s1)C(F)(F)F` (stereo not drawn): -0.242.
The value for `O=C1CCCN1CC(CN1CCOCC1)Sc1nnnn1-c1ccccc1` (stereo not drawn) was 0.197; that for `CCOC(=O)C(C)Sc1nc2c(cnn2-c2ccc(C)cc2)c(=O)[nH]1` (stereo not drawn) was 1.83.
`C=C(C)C1Cc2c(C)nn(-c3cc(C)c4ccccc4n3)c2C1` (stereo not drawn) showed a z-score of 0.162.
Molecule `Cc1ccccc1-c1nc(S(=O)(=O)c2ccc(Cl)cc2)c(NCCN2CCOCC2)o1` had a z-score of -0.166.
The same measure for `COc1ccc(NC(=O)NC(C)c2ccncc2)cc1OC` (stereo not drawn): active: -3.06; for `COc1cccc(-c2nc(OC(C)C)c3ccccc3n2)c1`: 0.988.
The same measure for `C=CCOc1ccccc1/C=c1\sc2nc(=O)c(C)nn2c1=O`: -0.929.
In turn, `CCOC(=O)CNC(=O)Nc1cccc(Cl)c1C` yielded a z-score of -0.0624.
The value for `O=c1[nH]cnc2scc(-c3cccs3)c12` was 0.45; that for `CSc1nc(-c2ccc(Cl)cc2)nn1C(=O)c1ccco1` was 0.0125.
The same measure for `Cc1cc(NS(=O)(=O)c2ccc(NC(=S)NC(=O)c3ccccc3)cc2)no1`: 2.22; for `CCOC(=O)c1nnc(-c2ccccc2)o1`: -0.712.
The same measure for `O=C(C1=NNCC1c1ccccc1)C1CO1` (stereo not drawn): -0.32; for `CCN=C1SC(C(=O)Nc2cccc(Br)c2)CC(=O)N1CC` (stereo not drawn): -0.0533; for `CC(=O)OC1CC(C)(C)N(OC(=O)c2ccc(N)cc2)C(C)(C)C1`: 0.0443.
With `N#Cc1ccc2ccn(CC(=O)N3CCCc4ccccc43)c2c1`, the z-score is -0.703.
The same measure for `CCOC(=O)CC(=O)CSc1nc2c(c(-c3cccs3)c1C#N)CCC2`: -0.263; for `Cc1cc(C(=O)CSc2nnc3c(Cl)cc(Cl)cn23)c(C)n1C`: -0.0644.
`O=C(Nc1cccnc1)c1cnc2ccccc2n1` gave a z-score of 0.415.
The same measure for `Cc1nnc(-c2cccc(Br)c2)c2cn(-c3cccc(Br)c3)nc12`: -0.337.
`O=C(COc1ccc(Cl)cc1)Nc1ccc2c(c1)CCC2` gave a z-score of 0.0759.
`O=C(NC1=NCCS1)c1ccncc1`: the z-score was -0.0616.
The same measure for `O=C(c1ccc([N+](=O)[O-])s1)N1CCN(c2ccccc2)CC1`: -0.0818; for `COCCNc1ncnc2c1cnn2Cc1ccc(Cl)cc1`: -0.482; for `COc1ccc(C(=O)Nc2cc(C(F)(F)F)ccc2Cl)cc1OC`: -0.412.
`Cc1nn(-c2ccccc2)c(C)c1/C=N/NC(=O)CSc1nc2ccccc2c(=O)n1-c1ccc(Br)cc1` returned a z-score of 0.239.
The same measure for `COc1ccc(CNC(=O)c2ccc(C)o2)cc1`: 0.531.
The same measure for `CCOC(=O)c1c(NC(=O)C2C3C=CC(C3)C2(C)C(=O)O)sc2c1CCCC2` (stereo not drawn): -0.0926.
The value for `Cn1c(=O)c2cc(S(=O)(=O)N3CCC(c4ccccc4)CC3)ccc2n(C)c1=O` was -0.0689.
